Data published in PubChem BioAssay AID894 (National Center for Advancing Translational Sciences (NCATS), 2007).
Screen size: about 150,000 compounds; about 6,500 (4.3%) were called active. The inconclusive results got no clear call from the source; some entries with a clear call stand among them for comparison. The call rests on the fitted dose curve; in most records, active means well fitted inhibition curve with a large enough effect (not every such curve was filed as active); inconclusive means small, poorly fitted or top-dose-only effect, or another doubt; inactive means no such curve, though single readings can be large or run the other way. Where the call is inconclusive, the potency comes from a doubtful curve fit.

These molecules were tested against 15-hydroxyprostaglandin dehydrogenase [NAD(+)] (Homo sapiens) (UniProt P15428) (assay: qHTS Assay for Inhibitors of HPGD (15-Hydroxyprostaglandin Dehydrogenase)). Conditions: purified HPGD, NADH fluorescence kinetic, PGE2 substrate; activity change, negative = inhibition: hits give low values.
UniProt P15428, sequence (P15428 whole entry, looked up): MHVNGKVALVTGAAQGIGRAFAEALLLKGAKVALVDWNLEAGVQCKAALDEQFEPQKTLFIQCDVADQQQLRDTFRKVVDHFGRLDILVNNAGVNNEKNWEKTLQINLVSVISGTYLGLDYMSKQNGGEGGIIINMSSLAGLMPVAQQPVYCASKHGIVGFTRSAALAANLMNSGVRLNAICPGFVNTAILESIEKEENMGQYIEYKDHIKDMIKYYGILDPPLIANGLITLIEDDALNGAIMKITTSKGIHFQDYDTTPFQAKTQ
How it was run: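 NADH formation kinetics: reaction with 30 uM PGE2 and 1 mM NAD+ (final), 20 nM enzyme, Tris-HCl pH 8 with Tween 20, after 15 min compound preincubation at room temperature. Fluorescence change, last versus first of five reads.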
On the % scale 0 is the no-effect control and ±100 the full control effect; potency means the concentration at half of the fitted maximal effect; tags describe the fitted curve by direction and shape.

Potency, active:
CC1(C)CC(=O)C(N=Nc2ccc(S(=O)(=O)N3CCCCCC3)cc2)=C(O)C1 25.1 µM
Cc1cc(C(=O)CSc2nnnn2C)c(C)n1-c1ccc2c(c1)OCCO2 25.1 µM
CN(C)S(=O)(=O)c1cccc(C(=O)Nc2ccccc2[N+](=O)[O-])c1 39.8 µM
CCn1c(SCC(=O)Nc2ccc(C(=O)OC)cc2)nc2cccnc21 3.55 µM
COc1ccc(-n2nnc3c(SCc4ccccc4)ncnc32)cc1 15.8 µM
COc1cc(N=c2ssnc2Cl)c(OC)cc1Cl 3.55 µM
O=C(N/N=C/C=C/c1ccc([N+](=O)[O-])cc1)c1cccs1 15.8 µM
O=C(NC1CCCC1)c1ccc(Br)o1 15.8 µM
c1cncc(-c2nn3c(Cn4cnc5ccccc54)nnc3s2)c1 3.16 µM
COc1cc(CNn2c(C)n[nH]c2=S)cc(Cl)c1OCc1ccc(F)cc1 12.6 µM
CC(NC(=O)C1CCCC1)C1CC2CCC1C2 (configuration not stated) 28.2 µM
COc1ccc(C2=NOC(CN3C(=O)c4ccccc4S3(=O)=O)C2)cc1 (configuration not stated) 25.1 µM

Potency, inconclusive:
O=C(O)/C=C/C(=O)NNC(=O)c1ccccc1Br 39.8 µM [inhibitor, single point]
CCc1nnc(N/N=C/c2c(Cl)cccc2Cl)n1N 31.6 µM [inhibitor, partial curve, poor fit]
CCSc1nc(-c2ccc(OC)cc2)cc(-c2ccc(OC)cc2)c1C#N 25.1 µM [inhibitor, partial curve]
CCCCNC(=O)CSc1nc2ccc(N3CCOCC3)cc2c(=O)n1CCc1ccccc1 35.5 µM [inhibitor, partial curve]
CCCCn1c(SCC(=O)NCc2ccco2)nc2c(sc3ccccc32)c1=O 28.2 µM [inhibitor, partial curve]
CCOCCCNC(=O)c1c(C)c(C(=O)OCC)n(C)c1C 8.91 µM [inhibitor, full curve, poor fit]
CCOc1ccc2nc3c(cc2c1)CN(CCOC)C(=NC)S3 3.55 µM [inhibitor, full curve, poor fit]
O=C(C1=NN(c2ccccc2)C2C(=O)N(c3ccccc3)C(=O)C12)c1ccccc1 (configuration not stated) 31.6 µM [inhibitor, partial curve]
COc1ccc(-c2cc(C(F)(F)F)n3nc(C(=O)O)nc3n2)cc1 28.2 µM [inhibitor, single point]
O=C(CN1CCCC1)Nc1nnc(-c2cccs2)s1 20 µM [inhibitor, partial curve]
CCOC(=O)c1c(/N=C/c2cccc([N+](=O)[O-])c2O)sc(C)c1C 39.8 µM [inhibitor, single point]
CCCCCn1c(SCCN2CCOCC2)nc2c1c(=O)[nH]c(=O)n2C 31.6 µM [inhibitor, single point]
CCOC(=O)c1sc2nc(CC(=O)OC)nc(NCc3ccc(F)cc3)c2c1C 35.5 µM [inhibitor, partial curve]
CCC(Sc1ccc2nnc(-c3ccc(F)cc3)n2n1)C(=O)O (configuration not stated) 35.5 µM [inhibitor, partial curve]
O=C(CCCN1C(=O)c2ccccc2C1=O)N1CCc2ccccc2C1 25.1 µM [inhibitor, partial curve]
CCCCn1c(-c2csc(C(C)C)c2)n[nH]c1=S 14.1 µM [inhibitor, partial curve]
N#Cc1ccc(-c2ccc(F)cc2)nc1Oc1ccc(F)cc1 35.5 µM [inhibitor, single point]
CCN(CC)CCNC(=O)c1cc2c(-c3ccc(Cl)cc3)nn(C)c2s1 31.6 µM [inhibitor, partial curve]
CC(=O)Nc1nc2ccc(C(=O)NC3CCCCC3)cc2s1 22.4 µM [inhibitor, partial curve]
Cc1cc2c(nc1C)CCCN2C[C@@H](C)O/N=C1/[C@H]2CCn3c(=O)n(-c4ccccc4)c(=O)n3[C@H]2[C@H](O)[C@@H]2O[C@H]12 25.1 µM [inhibitor, single point]
COc1ccccc1-n1c(SCC(=O)N2CCCCC2)nc2cccnc21 35.5 µM [inhibitor, single point]
Cc1cc(C)c(S(=O)(=O)NCc2cn3c(C)csc3n2)c(C)c1 3.55 µM [inhibitor, single point]
O=C(c1cnccn1)N1CCC2(CC1)CN(c1ncccn1)C2 3.16 µM [inhibitor, full curve]
O=C(c1cccs1)c1ccc(-c2cccs2)s1 12.6 µM [inhibitor, partial curve]
CC(=O)N1CCC2(CC1)CN(Cc1cc(C(F)(F)F)cc(C(F)(F)F)c1)C2 39.8 µM [inhibitor, single point]
COc1ccccc1N(CC(=O)NCc1ccccn1)S(C)(=O)=O 35.5 µM [inhibitor, partial curve]
O=C1NC(c2ccco2)Nc2ccccc21 (configuration not stated) 31.6 µM [inhibitor, partial curve]
Cc1ccc(CS(=O)(=O)c2ccccc2-c2nnc(-c3ccc(Cl)cc3)o2)cc1 39.8 µM [inhibitor, single point]
COc1ccc(-c2cc(C(=O)O)c3c(C)nn(-c4ccccn4)c3n2)cc1 25.1 µM [inhibitor, partial curve]
CCOC(=O)C(C)Sc1nc(-c2ccco2)cc(C(F)(F)F)c1C#N (configuration not stated) 25.1 µM [inhibitor, partial curve]
COc1ccc(CCNC(=O)c2ccc3nc(-c4ccco4)c(-c4ccco4)nc3c2)cc1OC 7.94 µM [inhibitor, full curve]
CC(=O)Nc1ccc(S(=O)(=O)Nc2nc3ccccc3nc2Nc2ccc3ccccc3c2)cc1 3.98 µM [inhibitor, full curve, poor fit]
COCC(=O)N=Nc1c(O)[nH]c2ccccc12 15.8 µM [inhibitor, partial curve]
CCOC(=O)C(C)Sc1nc(-c2ccccc2)nc2ccc(F)cc12 (configuration not stated) 35.5 µM [inhibitor, single point]
CCNC(=O)c1c(NC(=O)c2cc(-c3cc(C)ccc3O)n[nH]2)sc2c1CCCC2 17.8 µM [inhibitor, partial curve]
Cc1[nH]nc2c1C(c1cccc(O)c1)C1=C(CC(C)(C)CC1=O)N2 (configuration not stated) 28.2 µM [inhibitor, partial curve]
CCOc1ccc(/C=C/C(=O)Nc2ccc(C(N)=O)cc2)cc1OC 35.5 µM [inhibitor, partial curve]
COc1ccnc(NCc2ccc(Cl)cc2)c1C#N 17.8 µM [inhibitor, partial curve]
N#CCC(CNc1ncc(C(F)(F)F)cc1Cl)OC(=O)c1ccc(Cl)cc1Cl (configuration not stated) 15.8 µM [inhibitor, partial curve]
Cc1ccccc1C(=O)NC(=S)Nc1ccc(S(=O)(=O)N2CCN(C)CC2)cc1 39.8 µM [inhibitor, partial curve]
Cc1nc2ccc(S(=O)(=O)Nc3cc(-c4nc5cccnc5s4)ccc3C)cc2s1 25.1 µM [inhibitor, partial curve]
CCOC(=O)CS(=O)(=O)c1nc(-c2ccc(F)cc2)cc(C(F)(F)F)n1 14.1 µM [inhibitor, partial curve]
COc1ccc(-c2nc(C#N)c(N3CCOCC3)o2)cc1OC 28.2 µM [inhibitor, partial curve]
COCCNC(=O)CSc1nc(-c2ccc(OC)c(OC)c2)cc(C(F)(F)F)n1 28.2 µM [inhibitor, partial curve]
Cc1cc(C)n2nc(/C(C#N)=C/c3ccccc3)c(C#N)c2n1 31.6 µM [inhibitor, partial curve]
COc1ccc(Nc2ncc3c(n2)CC(c2ccc(OC)cc2)CC3=O)cc1 (configuration not stated) 39.8 µM [inhibitor, single point]

Activity change, negative = inhibition, inactive:
COC(=O)c1sc(NC(=S)NC(=O)c2cccc(C)c2)nc1C -3.88%
COc1ccc(NCc2nnc(SCC(=O)Nc3cc(C(F)(F)F)ccc3Cl)o2)cc1 -14%
CC1(C)CC(NC(=O)c2coc(=O)c(Br)c2)CC(C)(C)N1 -13.7%
CC(C)=C1C2CCC1C1C(=O)N(c3nc(-c4ccccc4)c(C)s3)C(=O)C21 (configuration not stated) -14.8%
CC(=O)Nc1ccccc1OCC(=O)N(Cc1ccccc1)C(C)C -4.58%
Cc1cccc(C)c1NC(=S)NC(=O)CCc1ccccc1 -12%
CCCc1cc(=O)n2[nH]c(NCc3c(Cl)cccc3Cl)nc2n1 -18%
COc1ccc2cc(Br)ccc2c1CC(=O)NC(C)(C)C -12.6%
C=CCN1c2ccccc2[C@]23C[C@@H](C(=O)OC)N(S(=O)(=O)c4c(C)noc4C)C2=NC(C(=O)OC)=C(C(=O)OC)[C@H]13 3.08%
